This is an account of results in the supplement of paper PMC11417369.

± gives the standard deviation of the averaged measurements. The list shows a part of the results.

The test system of this assay is PfAP2-LT AP2 domain (GST-tagged). The assay is described as follows: gcPBM binding intensity (ln(normalized median fluorescence intensity)); higher = stronger DNA binding. The essentials:
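Using an Agilent 4 × 180k array, primer-extended double-stranded 36-bp intergenic genomic probes and negative controls were exposed for 1 h to GST-fused P. falciparum DNA-binding domains expressed in E. coli. Binding was carried out in 1× PBS with 1% milk, 0.2 mg/ml BSA, 0.5% salmon testes DNA and 0.03% Triton X-100, and protein was detected with Alexa488 anti-GST antibody and a 488 nm scan. Binding intensity is the highest Masliner-normalised natural-log median intensity across replicate spots of either probe orientation.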
With “ATAAAATGATAAATTTGTACACAAAAAAAAAAAAAA [XGTACX_site964]”, the “gcPBM binding intensity (ln)” value stood at 8.71 ± 0.47. Turning to “AAAATAAAATATTTCTGTACTTATAACTATTCTATA [XGTACX_site8007]”, the “gcPBM binding intensity (ln)” value was 8.58 ± 0.38.

Regarding “GGGTATACAAATAAACGTACAAACTCATAAAAAAAA [XGTACX_site3191]”, the “gcPBM binding intensity (ln)” value was 8.87 ± 0.52. With “ATTTACATAAATTGCATATATCGATGTAAATAAATA [CACACA_negctrl_site1150]”, the “gcPBM binding intensity (ln)” value was 8.66 ± 0.4.

As for “TCTTTTTAAACTAATAGTACATATATATTAATAAAT [XGTACX_site4217]”, the “gcPBM binding intensity (ln)” value came to 8.34 ± 0.48. Regarding “ATATATATATATATATGTACATATATTTATTTATTG [XGTACX_site6267]”, the “gcPBM binding intensity (ln)” value was 9.49 ± 0.11. “CATTTATTTTTGTTCTGTACATAAAGATGAACAAAA [XGTACX_site6797]”: the “gcPBM binding intensity (ln)” value is 8.25 ± 0.31. Regarding “TTAAAAAAATATAATACACACCAAAAATATGCACAT [CACACA_site5209]”, the “gcPBM binding intensity (ln)” value was 9.03 ± 0.38. In the case of TAATAATTTATAATAGTGCATTTGATTTTAAAAATA, the “gcPBM binding intensity (ln)” value worked out at 8.26 ± 0.47. The figure for “TTTTTATGGTAAATAAAAATATCTCCCTCCTTAATT [CACACA_negctrl_site1352]” is 8.47 ± 0.25. As to “CATATAAAAATGTGCACACACACACCCATATATATT [CACACA_site1526]”, the “gcPBM binding intensity (ln)” value was 9.95 ± 0.14.

For “AAAATTAATAAATAAACACACATATATATATATATA [CACACA_site2598]”, the “gcPBM binding intensity (ln)” value amounted to 9.61 ± 0.22. With “AATATCCACATTAGGAGTACACAGCTAACTGTTTGA [XGTACX_site3357]”, the “gcPBM binding intensity (ln)” value amounted to 8.82 ± 0.35. In the case of “TTGATTACACTGAAGTGTACATATATATATATATAT [XGTACX_site3532]”, the “gcPBM binding intensity (ln)” value came to 9.755 ± 0.092. On to “AAATAATAAAAAAAATGTACACGTAAATATTATATT [XGTACX_site8125]”, for which the “gcPBM binding intensity (ln)” value turned out to be 8.89 ± 0.43. With “AAAAAAAAAAGAAACACACACATTTGTATATAATAT [CACACA_site2078]”, the “gcPBM binding intensity (ln)” value is 9.31 ± 0.4. The figure for “TTTTATATAAAATCGTGTACATACCATTTCCTATTA [XGTACX_site5159]” is 8.69 ± 0.5. As to “AAATAAATCTTATGCACACAAATAATTAATTAAACA [CACACA_site1693]”, the “gcPBM binding intensity (ln)” value was found to be 8.88 ± 0.46.

In the case of “TATTTTTTTCTTACATACTAATTTGGTACTCACATA [TGCATGCA_negctrl_site81]”, the “gcPBM binding intensity (ln)” value came to 8.74 ± 0.51.

For “AGAGTTCTCATATGCACACAAAAAACTTTCATTTAT [CACACA_site45]”, the “gcPBM binding intensity (ln)” value turned out to be 8.9 ± 0.33.

As for “TAAATAAGCACATACACACATACATACATACATAAA [CACACA_site4017]”, the “gcPBM binding intensity (ln)” value stood at 9.44 ± 0.38. As for “AACCCCGTGGAAATATGTACATATAAATATATAAAT [XGTACX_site2094]”, the “gcPBM binding intensity (ln)” value came out at 9.18 ± 0.43. To “GTGAAATATGCAAACACACACGAGAAAAATGTATAT [CACACA_site7488]” belongs 9.61 ± 0.38. Consider “TTTTTGCCATATTACACACACACATGTAAACCCCCT [CACACA_site1647]”, for which the “gcPBM binding intensity (ln)” value is 9.87 ± 0.099.

For the sequence “CAAAACAAAACGTATGCACACAATTAATATATTAAA [CACACA_site3405]”, the “gcPBM binding intensity (ln)” value was 9.1 ± 0.37. Regarding “ATAAATAAGATATATACACACATATCTATACATATT [CACACA_site6369]”, the “gcPBM binding intensity (ln)” value turned out to be 8.99 ± 0.37. As to “AATCCACTTTTTTATGTTATACAATATAAATTAAAT [XGTACX_negctrl_site446]”, the “gcPBM binding intensity (ln)” value came to 8.48 ± 0.32. In the case of “GGCTAAAAGGGGCACACACACAAAAAAAAAAAAAAA [CACACA_site3288]”, the “gcPBM binding intensity (ln)” value was 9.52 ± 0.72. Turning to “ATTTAAGAAAAAAGTTGTACTTATTTATTTTTATTT [XGTACX_site5561]”, the “gcPBM binding intensity (ln)” value worked out at 8.45 ± 0.59. Regarding “ATATATTATTTCTAGTGTACATACCCATATATAATA [XGTACX_site8902]”, the “gcPBM binding intensity (ln)” value turned out to be 8.77 ± 0.47. With “TAGATAAACAAGAAATGTACAAACGTAAATATGTTC [XGTACX_site2373]”, the “gcPBM binding intensity (ln)” value came out at 9.11 ± 0.45. For the sequence “ATTGAATTCCAACTGGTGCACCAGTAAGATTGAAAA [GTGCAC_site9895]”, the “gcPBM binding intensity (ln)” value worked out at 8.59 ± 0.47. Consider “ATATTTTTTTTTTCGTGTACGCATAAATATATCTAA [XGTACX_site3360]”, for which the “gcPBM binding intensity (ln)” value came to 8.69 ± 0.45. As to “TAAAAAATAAATATATGTACATATTTATTTTTTTTT [XGTACX_site850]”, the “gcPBM binding intensity (ln)” value came to 8.38 ± 0.49. Take “AAATTCATAAAAATATTTTATAATTATATATAGAAT [TGCATGCA_negctrl_site343]”: the “gcPBM binding intensity (ln)” value was found to be 8.35 ± 0.5.

On to “GGGTTTTTTATTAATACATGCATGGAAACGCACTAT [TGCATGCA_site1000]”, for which the “gcPBM binding intensity (ln)” value was determined as 9.05 ± 0.27.

Take “AAGAAAAACAATGAGATAAAGAAGAGAAAATATGTC [TGCATGCA_negctrl_site415]”: the “gcPBM binding intensity (ln)” value was determined as 9.08 ± 0.59. On to “ATATATATATAATTTGTACACACAAATATGCATATA [CACACA_site9136]”, for which the “gcPBM binding intensity (ln)” value came out at 9.04 ± 0.35. As to “ATAAATATGTAAAAAACATGCAAAAAATTAAAGACA [TGCATGCA_site912]”, the “gcPBM binding intensity (ln)” value was 9.11 ± 0.48. For “AACGCACATATATTTATGTATATATATATATATATA [GTGCAC_negctrl_site478]”, the “gcPBM binding intensity (ln)” value was found to be 9.88 ± 0.42. As to “GGAAACAAAAAATATATACACACTAAACATAAAAAA [CACACA_site20]”, the “gcPBM binding intensity (ln)” value was 9.11 ± 0.52.

Turning to “TCATAGTAGAAACACACACACACACCCATATATATA [CACACA_site1737]”, the “gcPBM binding intensity (ln)” value is 10.1 ± 0.23. For the sequence “TAAAAAAAAAGAAGCTGTACTAAAAAATTTATATTA [XGTACX_site7408]”, the “gcPBM binding intensity (ln)” value was 8.34 ± 0.57. Turning to “TTATTACATAACAATATACACACTATTGATTAAAGA [CACACA_site2933]”, the “gcPBM binding intensity (ln)” value amounted to 8.68 ± 0.39.
